The whole screen tested about 310,000 compounds, of which about 2,200 (0.71%) showed an effect of 50% or more. The effect is printed as a negative number. The list shows a part of the results.

The target of this assay is human ether-à-go-go-related gene (hERG) potassium channel (human, UniProt Q12809). The assay is described as follows: primary screen, population patch clamp on CHO cells stably expressing hERG.
Chain of human ether-à-go-go-related gene (hERG) potassium channel (Q12809 whole entry, looked up): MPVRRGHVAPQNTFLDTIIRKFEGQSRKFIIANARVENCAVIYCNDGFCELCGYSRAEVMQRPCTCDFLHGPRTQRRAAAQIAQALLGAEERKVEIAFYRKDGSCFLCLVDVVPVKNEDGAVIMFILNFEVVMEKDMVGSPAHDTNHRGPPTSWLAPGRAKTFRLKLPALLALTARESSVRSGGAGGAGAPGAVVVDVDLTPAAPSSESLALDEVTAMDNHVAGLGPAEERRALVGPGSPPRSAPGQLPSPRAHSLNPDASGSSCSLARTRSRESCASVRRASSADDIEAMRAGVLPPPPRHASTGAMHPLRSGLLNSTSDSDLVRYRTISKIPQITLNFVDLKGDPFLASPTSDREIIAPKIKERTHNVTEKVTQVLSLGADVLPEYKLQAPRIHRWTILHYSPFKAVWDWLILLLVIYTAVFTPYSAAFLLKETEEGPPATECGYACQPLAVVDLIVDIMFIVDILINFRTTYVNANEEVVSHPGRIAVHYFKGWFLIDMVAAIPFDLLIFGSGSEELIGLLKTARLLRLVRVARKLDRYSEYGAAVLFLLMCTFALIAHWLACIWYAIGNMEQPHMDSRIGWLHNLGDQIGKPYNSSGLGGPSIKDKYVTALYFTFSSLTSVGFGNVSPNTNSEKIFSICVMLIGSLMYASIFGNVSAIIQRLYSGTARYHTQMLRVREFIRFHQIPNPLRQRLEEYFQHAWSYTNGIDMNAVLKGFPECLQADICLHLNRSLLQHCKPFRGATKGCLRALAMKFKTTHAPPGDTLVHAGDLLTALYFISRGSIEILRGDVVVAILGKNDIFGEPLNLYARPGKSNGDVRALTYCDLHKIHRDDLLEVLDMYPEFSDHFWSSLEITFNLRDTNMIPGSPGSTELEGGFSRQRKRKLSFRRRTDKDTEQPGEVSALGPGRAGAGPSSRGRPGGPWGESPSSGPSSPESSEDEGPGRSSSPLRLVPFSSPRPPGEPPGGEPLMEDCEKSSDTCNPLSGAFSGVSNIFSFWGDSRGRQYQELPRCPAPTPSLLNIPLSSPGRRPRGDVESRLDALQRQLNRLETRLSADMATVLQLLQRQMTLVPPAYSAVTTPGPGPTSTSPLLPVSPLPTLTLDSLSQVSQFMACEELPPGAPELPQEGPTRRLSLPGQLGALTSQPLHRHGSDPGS
For `O=C(NCCCn1ccnc1)C(=O)NCC1OCCN1S(=O)(=O)c1cc(F)ccc1F` (centres unmarked), the “hERG current change (%, negative = inhibition) at 1uM” value came out at 7.71%. As for `COc1ccc(/C=N/NC(=O)Cn2cnc3ccccc3c2=O)cc1`, the “hERG current change (%, negative = inhibition) at 1uM” value is 13.6%. For the compound `COC(=O)C1=C(c2ccc(S(C)(=O)=O)cc2)C[C@@H]2CC[C@H]1N2C(=O)NCC1CC1`, the “hERG current change (%, negative = inhibition) at 1uM” value was -2.95%.

On to `Cc1cccc(C2CC(c3ccccc3)Nc3ncnn32)c1` (centres unmarked), for which the “hERG current change (%, negative = inhibition) at 1uM” value is on record as 1.02%. In the case of `COc1ccc(CNC(=O)CCNS(=O)(=O)c2ccc(C)cc2)cc1` it was 0.121%; in that of `O=C1C=C(c2ccccc2)C[C@H](c2cccs2)[C@H]1n1nnc([N+](=O)[O-])n1`, 9.62%.

`CC1=CC(c2ccc(Cl)cc2)n2nc(NC(=O)c3ccccc3)nc2N1` (centres unmarked): the “hERG current change (%, negative = inhibition) at 1uM” value was -8.25%. Take `Cc1c(C(=O)c2ccccc2C(=O)O)sc2ccccc12`: the “hERG current change (%, negative = inhibition) at 1uM” value was 8.32%. In the case of `COc1ccc(CNC(=O)COC(=O)CC(NC(N)=O)c2ccc(Cl)cc2)cc1OC` (centres unmarked) it was 0.856%. As to `CS(=O)(=O)c1ccc(NC(=O)CCN2C(=O)C3CCCCC3C2=O)cc1` (centres unmarked), the “hERG current change (%, negative = inhibition) at 1uM” value is on record as -0.267%. Take `Cc1cccc(C)c1OC(=O)CN1C(=O)c2ccccc2C1=O`: the “hERG current change (%, negative = inhibition) at 1uM” value was 16.4%. Take `CN(CC(=O)Nc1ccccc1C(=O)N1CCCC1)S(=O)(=O)c1ccc(Br)cc1`: the “hERG current change (%, negative = inhibition) at 1uM” value is given as -4.28%. With `O=C(Nc1ccc(N2CCOCC2)c(Cl)c1)c1ccco1`, the “hERG current change (%, negative = inhibition) at 1uM” value turned out to be 7.93%. As to `CCC(=O)N1C(=O)CCN(C(C)=O)c2ccccc21`, the “hERG current change (%, negative = inhibition) at 1uM” value is listed as -0.334%. As to `Cc1nnc(NC(=O)C2CC(=O)N(Cc3ccccc3)C2)s1` (centres unmarked), the “hERG current change (%, negative = inhibition) at 1uM” value turned out to be 8.02%.

With `CCSc1nc2c(c(=O)n1-c1ccc(F)cc1)SCC2`, the “hERG current change (%, negative = inhibition) at 1uM” value was 0.341%. On to `Cc1ccc(OCC(=O)N(Cc2ccc(C)o2)C2CCS(=O)(=O)C2)cc1` (centres unmarked), for which the “hERG current change (%, negative = inhibition) at 1uM” value is -26%.

Consider `O=C1CC(NS(=O)(=O)c2cccs2)CN1c1cccc(F)c1` (centres unmarked), for which the “hERG current change (%, negative = inhibition) at 1uM” value is reported as 6.88%. Take `CCOC(=O)c1cc(-c2csc(Nc3c(C)cc(C)cc3C)n2)on1`: the “hERG current change (%, negative = inhibition) at 1uM” value is listed as 14.4%. For `COC(=O)[C@@H]1C[C@]2(C(=O)O)c3ccccc3N(OOSc3ccccc3)[C@@H]2N1C(=O)OC`, the “hERG current change (%, negative = inhibition) at 1uM” value came out at 17.2%.

For `Cc1ccc(CNC(=O)C2CCCN(S(=O)(=O)c3cnc[nH]3)C2)cc1` (centres unmarked), the “hERG current change (%, negative = inhibition) at 1uM” value was determined as 5.14%. Take `CCCn1c(Nc2ccccc2C)nc2ccccc21`: the “hERG current change (%, negative = inhibition) at 1uM” value amounted to 1.83%. Under `C/C(=N\NC(=O)c1cc(Br)ccc1O)c1cccs1` stands 15.2%.

With `COc1ccccc1C(=O)NC(=O)COC(=O)c1ccco1`, the “hERG current change (%, negative = inhibition) at 1uM” value stood at 8.07%. In the case of `Cc1ccc(C(=O)NCc2ccccn2)o1` it was 12.8%; in that of `COc1cccc(C(=O)Nc2ccc3c(c2)C(=O)NC3=O)c1`, 3.17%. For the compound `CCOC(=O)c1sc2nc(CSc3ccccc3)nc(N3CCC(C(N)=O)CC3)c2c1C`, the “hERG current change (%, negative = inhibition) at 1uM” value is listed as 22.7%.

Turning to `Cc1cc([N+](=O)[O-])cc(/C=N/n2c(C)nc3ccccc3c2=O)c1O`, the “hERG current change (%, negative = inhibition) at 1uM” value is 3.92%. Take `CCOC(=O)C1CCCN(C2CC(=O)N(c3ccccc3)C2=O)C1` (centres unmarked): the “hERG current change (%, negative = inhibition) at 1uM” value is on record as 3.24%. For the compound `CC1=Nc2cc(C(=O)N3CCCC3)ccc2Sc2ccc(C)cc21`, the “hERG current change (%, negative = inhibition) at 1uM” value came to 3.5%. On to `COc1cc(OC)cc(-c2c(-c3cccs3)c3cc(-c4ccn[nH]4)ccc3n2C)c1`, for which the “hERG current change (%, negative = inhibition) at 1uM” value came out at 6.29%.

Regarding `COc1ccc(-c2csc(NC(=O)CSCC(=O)Nc3cc(C)on3)n2)cc1OC`, the “hERG current change (%, negative = inhibition) at 1uM” value amounted to 14.3%. Take `COc1ccc(/C=C/c2nc(S(=O)(=O)c3ccccc3)c(NCCCN(C)C)o2)cc1OC`: the “hERG current change (%, negative = inhibition) at 1uM” value was -2.41%. Under `CCCCNCCCCOc1ccccc1` stands 16.3%; under `CC(C)c1nc2sc3c(=O)n(N)cnc3c2c2c1COC(C)(C)C2`, 9.7%. As to `Clc1ccccc1OCCN1CCC(Cc2ccccc2)CC1.O=C(O)C(=O)O`, the “hERG current change (%, negative = inhibition) at 1uM” value is 10.6%. Turning to `COc1ccc(/C=N/NC(=O)CNS(=O)(=O)c2ccccc2)cc1`, the “hERG current change (%, negative = inhibition) at 1uM” value turned out to be 1.47%. Consider `CC(C(=O)Nc1nc2ccccc2s1)n1cc([N+](=O)[O-])cn1` (centres unmarked), for which the “hERG current change (%, negative = inhibition) at 1uM” value is reported as -39.6%. On to `CCN(CC)S(=O)(=O)c1ccc(/C=C/C(=O)Nc2ccc(F)c(F)c2F)cc1`, for which the “hERG current change (%, negative = inhibition) at 1uM” value was 4.84%. As to `CCC(=O)Nc1ccc(Cl)c(NC(=S)NC(=O)COc2ccc(Cl)cc2)c1`, the “hERG current change (%, negative = inhibition) at 1uM” value is on record as 7.5%. In the case of `Fc1ccccc1-c1n[nH]c(=S)n1C1CC1` it was 15.2%. Under `Cl.Fc1ccc(C(c2nnnn2Cc2ccco2)N2CCN(C3CCCCC3)CC2)cc1` (centres unmarked) stands -46%. Under `CCOC(=O)C(C)Sc1nc2ccccc2c(=O)n1CC` (centres unmarked) stands -2.85%; under `CCOC(CCNC(=O)c1cc(-c2cccs2)nc2ccccc12)OCC`, 7.14%.
